# Results taken from PubChem BioAssay AID1460 (National Center for Advancing Translational Sciences (NCATS), 2008).
# About 5,800 (2.1%) of roughly 270,000 compounds were called active. Not shown: some 16% with an inconclusive outcome. Calls come from the whole dose curve; as a rule, active = well fitted inhibition curve with a large enough effect; inconclusive = small, poorly fitted or top-dose-only effect; inactive = flat fitted curve, though single readings scatter. Only a part is listed here, and it is no random draw. Where a structure was tested more than once in an assay, its records may differ in their call.
# Molecular target: Microtubule-associated protein tau (Homo sapiens) (UniProt P10636)
# Test: qHTS for Inhibitors of Tau Fibril Formation, Thioflavin T Binding; note: nearly all actives have a fitted effect of over 55% in size
# Conditions: recombinant tau K18 P301L (four-repeat tau fragment), heparin-induced fibrillization, ThT fluorescence; series mostly up to 57.4 µM; activity, negative = inhibition: at the top concentration
# Description: NIH Molecular Libraries Probe Production Network [MLPCN]
# NIH Chemical Genomics Center [NCGC]
# Assay Provider: Carlo Ballatore, University of Pennsylvania
# The microtubule-associated protein tau is an abundant protein in the axons of neurons that stabilizes microtubules. With its ability to modulate microtubule dynamics, tau contributes directly or indirectly, to key structural and regulatory cellular functions. Particularly important is the influence tau exerts on axonal transport, which allows signaling molecules, trophic factors and other essential cellular constituents to travel along the axons. Under pathological conditions, tau becomes sequestered into insoluble aggregates called neurofibrillary tangles. This phenomenon is believed to have pathological consequences by promoting axonal transport deficits that ultimately lead to synaptic dysfunction and neuronal loss. To identify inhibitors of tau aggregation, a heparin-induced tau fibril formation assay was used that employed a recombinantly expressed fragment of tau, K18 (Q242-E372), bearing a P301L mutation (Gustke et al. 1994; Hong et al. 1998). This assay monitors tau fibrillization by Thioflavin T (ThT) fluorescence.
# Gustke, N., B. Trinczek, et al. (1994). "Domains of tau protein and interactions with microtubules." Biochemistry 33(32): 9511-22.
# Hong, M., V. Zhukareva, et al. (1998).
# Li, W. and V. M. Lee (2006).
# von Bergen, M., S. Barghorn, et al. (2001). "Mutations of tau protein in frontotemporal dementia promote aggregation of paired helical filaments by enhancing local beta-structure." J Biol Chem 276(51): 48165-74.
# NCGC Assay Protocol Summary:
# For screening, 2 uL/well human K18 P301L (15 uM unlabeled and 0.24 uM Alexa 594-labeled tau, final concentrations) in reagent buffer (100 mM sodium acetate pH 7) was dispensed into black solid 1536-well plates (Grenier) using a solenoid-based dispenser. Following transfer of 23 nL compound or DMSO vehicle by a pin tool, 2 uL/well heparin (20 uM final concentration) in reagent buffer was added and the plate centrifuged 15 s at 1000 RPM. Plates were incubated 6 hr at 37 C and then 1 uL/well ThT (30 uM final concentration) was added. After a 1 hr ambient incubation, the plates were read by an Envision (Perkin Elmer) to monitor ThT fluorescence (450/8 nm excitation and 510/23 nm emission).
# Keywords: NIH Roadmap, MLPCN, MLI, MLSMR, NCGC, qHTS, tau, tauopathies, Alzheimer's disease, fibril, neurodegeneration, aggregation
# % is set by controls: 0 for no effect and ±100 for the full control effect; potency is the fitted concentration of half-maximal effect.
# UniProt P10636, sequence (P10636 whole entry, looked up): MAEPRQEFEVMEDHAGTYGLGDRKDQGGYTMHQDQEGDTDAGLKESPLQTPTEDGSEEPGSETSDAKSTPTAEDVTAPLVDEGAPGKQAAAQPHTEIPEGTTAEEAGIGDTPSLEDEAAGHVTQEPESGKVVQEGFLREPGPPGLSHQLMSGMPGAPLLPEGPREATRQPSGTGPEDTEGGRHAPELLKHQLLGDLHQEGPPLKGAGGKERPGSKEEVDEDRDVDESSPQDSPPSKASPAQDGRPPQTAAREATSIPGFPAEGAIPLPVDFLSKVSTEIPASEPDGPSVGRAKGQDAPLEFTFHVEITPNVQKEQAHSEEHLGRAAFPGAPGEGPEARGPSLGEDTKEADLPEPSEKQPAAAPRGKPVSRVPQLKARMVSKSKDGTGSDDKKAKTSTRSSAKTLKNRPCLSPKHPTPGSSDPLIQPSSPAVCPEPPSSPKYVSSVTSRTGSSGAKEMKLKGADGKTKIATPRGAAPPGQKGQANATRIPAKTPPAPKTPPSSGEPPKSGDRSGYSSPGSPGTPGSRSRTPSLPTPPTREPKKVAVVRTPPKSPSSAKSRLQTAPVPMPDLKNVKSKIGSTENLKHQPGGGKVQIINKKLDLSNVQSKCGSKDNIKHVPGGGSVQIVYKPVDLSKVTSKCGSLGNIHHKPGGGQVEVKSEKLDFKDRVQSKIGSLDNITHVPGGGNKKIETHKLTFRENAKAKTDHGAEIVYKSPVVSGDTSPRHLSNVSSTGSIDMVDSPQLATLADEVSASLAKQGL
Structure (SMILES),Potency,"activity, negative = inhibition"
O=C(Nc1ccc(F)cc1)C1=CC(=O)N2CCN=C2S1,active: 17.8 µM,–
O=C(NCCCO)/C(=C/c1ccco1)NC(=O)c1ccc(Br)o1,–,inactive: -14.7%
Cc1c(OCc2ccccc2)cccc1OCc1ccccc1,–,inactive: -10.1% [at 11.5 µM]
COc1cccc([C@@H]2Oc3ccc(OC)cc3C(=O)[C@H]2OC(=O)NCc2ccc3c(c2)OCO3)c1,–,inactive: -13%
[C-]#[N+]/C(C#N)=C\c1cc(C(C)(C)C)c(O)c(C(C)(C)C)c1,active: 25.1 µM,–
COc1ccc(C2=CSC3=C(C(=O)c4cccc(S(=O)(=O)N(C)C)c4)CCN23)cc1,active: 25.1 µM,–
O=C(c1ccccc1)c1c2c(cc3sc4ccccc4[n+]13)-c1cccc3cccc-2c13,active: 6.31 µM,–
CC12C(=O)OC(=O)C1(C)C1CCC2O1 (stereo unspecified),inactive,–
O=C(c1ccc(F)cc1)C1CCN(CCn2c(=O)[nH]c3ccccc3c2=O)CC1,inactive,–
Cc1ccccc1N=Nc1c(C)[nH]n(C(N)=S)c1=O,active: 14.1 µM,–
CC(=O)N[C@@H](CSC/C=C(\C)CC/C=C(\C)CCC=C(C)C)C(=O)O,inactive,–
Cc1cc(O)c(NC(=S)NC(=O)c2ccc(-c3ccc(Cl)cc3)o2)cc1C,active: 11.2 µM,–
C[C@@](Cc1ccc(O)c(O)c1)(NN)C(=O)O,–,inactive: -8.44%
Cc1cc(C)n2c(Nc3ccc4c(c3)OCCO4)c(-c3ccccc3)nc2n1,–,inactive: -15%
CC1=C(C)/C(=N\OS(=O)(=O)c2ccccc2)C=CC1=O,active: 12.6 µM,–
CN1C[C@@H]2C(c3ccc(C(F)(F)F)cc3)C3(c4ccccc4)CC2(C3)[C@H]1c1ccccc1 (stereo partly specified),–,inactive: -9.12%
O=C(NCc1nc2ccccc2[nH]1)C1=C[C@H](c2ccc(Br)cc2)C[C@H](OCc2ccc(CO)cc2)O1,–,inactive: -1.59%
COC(=O)C1CCN(C2=C(NS(=O)(=O)c3ccc(Cl)cc3)C(=O)c3ccccc3C2=O)CC1,active: 14.1 µM,–
O=C(/C=C/c1ccc(-c2ccccc2)o1)c1ccccc1,–,inactive: 5.58%

Structure (SMILES),Potency,"activity, negative = inhibition"
CCOc1ccc(NC(=O)CCNS(=O)(=O)c2cccs2)cc1,–,inactive: -2.62%
CNc1nc(N/N=C/c2ccc([N+](=O)[O-])cc2)nc(Nc2ccccc2)n1,active: 3.98 µM,–
O=C1NC(c2cc(Cl)cc([N+](=O)[O-])c2O)Nc2ccccc21 (stereo unspecified),active: 7.08 µM,–
CNCC(O)c1ccc(O)c(O)c1 (stereo unspecified),inactive,–
c1cc(CN2CCCCC2)cc(OCCCNc2nc3ccccc3s2)c1,inactive,–
CCc1cc2c(nc1CC)CCN(CC/C(C)=N/O[C@@H](C)c1cc(-c3c(C)cc(C)cc3C)no1)C2,–,inactive: -7.72% [at 11.5 µM]
N=C(N)SCc1nc2ccccc2c(=O)n1-c1ccccc1,–,inactive: 6.05%
Cc1cc(C)c(C(=O)COc2cccnc2[N+](=O)[O-])cc1C,active: 14.1 µM,–
CCN1/C(=C/c2ccc3cc(C)ccc3[n+]2CC)Sc2cc(C)ccc21,active: 14.1 µM,–
COC(=O)CCC(=O)OC1(C)C(=O)C=C2C=C(C3CC3)N(c3ccccc3)C=C2C1=O (stereo unspecified),–,inactive: -13.8%
O=C1/C(=C\c2cccnc2)SC(=S)N1c1ccc(F)cc1,–,inactive: -9.41%
S=c1[nH]nc(-c2n[nH]c3c2CCC3)n1/N=C/C=C/c1ccco1,active: 22.4 µM,–
C#CCCOC(=O)N1C2=NC(C(=O)OC)=C(C(=O)OC)[C@@H]3N(C)c4ccccc4[C@]23C[C@H]1C(=O)OC,–,inactive: 9.18% [at 11.5 µM]
COC(=O)CCCC1=CC2=C(c3ccccc3)C(=O)C(C)(OC(=O)C3CCCC3)C(=O)C2=CN1Cc1ccc2c(c1)OCO2 (stereo unspecified),–,inactive: -0.855% [at 11.5 µM]
COc1cc(/C=N\Nc2nc(-c3cccs3)c(NC(C)=O)s2)ccc1O,active: 15.8 µM,–
CC(C)Oc1ccc2c(=O)c(-c3ccccc3)coc2c1,–,inactive: -20.8%
Cc1cccc(C(=O)N2CCC(=O)N([C@H](COCc3cccc(C(F)(F)F)c3)Cc3ccccc3)CC2)c1,–,inactive: -20.8%
CCOC(=O)c1nc(Nc2ccc(C(=O)OC)cc2)c2ccccc2n1,–,inactive: 1.23%
COCCCNC(=O)CCC(=O)NNc1nc2ccccc2c2nc(-c3ccccc3)nn12,–,inactive: -3.6%

Structure (SMILES),Potency,"activity, negative = inhibition"
CCCCC[C@H](O)/C=C/[C@H]1C(=O)C=C[C@@H]1C/C=C\CCCC(=O)O,–,inactive: -16.4%
COc1ccc(Cl)cc1C(=O)NCCc1ccc(S(=O)(=O)NC(=O)NC2CCCCC2)cc1,inactive,–
COc1ccc(NC(=O)C2CCCN(S(=O)(=O)c3c(C)[nH]c(=O)[nH]c3=O)C2)cc1Cl (stereo unspecified),–,inactive: -10.1%
COC(=O)CCC(=O)OC1(C)C(=O)C=C2C=C(C3CC3)N(c3cccc(C#N)c3)C=C2C1=O (stereo unspecified),–,inactive: 11.4% [at 11.5 µM]
N#Cc1ccc(C23CC4(C2)[C@H](CN(CC2CCCCC2)[C@@H]4c2ccccc2)C3c2ccccc2)cc1 (stereo partly specified),–,inactive: -0.663%
O=C(O)CCc1ccc(-c2cccs2)n1CC(=O)Nc1ccccc1C(F)(F)F,–,inactive: -14.5%
NC(=O)c1sc2nc(-c3ccco3)ccc2c1N,active: 6.31 µM,–
CCCCCCC(=O)Cc1cc(OC)c(OC)cc1C=C(C(=O)OCC)C(=O)OCC,–,inactive: -13.1% [at 11.5 µM]
CCOc1ccccc1CNC(=O)c1cc2oc3ccccc3c2n1CC,–,inactive: -22.3%
COC(=O)C1=C(C(=O)OC)[C@@H]2N(Cc3ccccc3)c3ccccc3[C@@]23C[C@@H](C(=O)OC)N(C(=O)COCc2ccccc2)C3=N1,–,inactive: -10.9% [at 11.5 µM]
COc1ccnc(CSC(N)=Nc2ccccc2OC)c1,active: 31.6 µM,–
O=C(Nc1ccccc1)/C(=C/c1ccc2c(c1)OCO2)NC(=O)c1ccco1,–,inactive: -3.24%
O=C(/C=C/c1ccc(-c2ccccc2[N+](=O)[O-])o1)c1ccccc1,active: 17.8 µM,–
COc1cc(Cl)c(C)cc1NC(=O)c1ccc2c(SCC(=O)O)c3c(nc2c1)CCCC3,–,inactive: -18.3%
CCCC[C@@H]1C[C@H]1[C@@H](NC(=O)c1cccs1)c1ccc(Cl)cc1,–,inactive: -13.9%
O=C(C1=C[C@@H](C2CC2)C[C@@H](OCCCCO)O1)N1CCN(Cc2ccccc2)CC1,–,inactive: -6.68%
CCN1CC=C2C(C#N)=C(N)C(C#N)(C#N)C(c3cc(Cl)ccc3Cl)C2C1 (stereo unspecified),active: 12.6 µM,–
COC(=O)CCCC1=CC2=CC(=O)C(C)(OC(=O)c3cccs3)C(=O)C2=CN1CCCCO (stereo unspecified),–,inactive: -5.26% [at 11.5 µM]
